Values joined by “and” are separate entries in the source; they are usually repeats but may differ in a detail not shown here. Equal values may be shown once. Out of some 48,000 compounds screened, about 1,200 (2.5%) were called active. About 2% were inconclusive and are not listed.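 The calls were made as follows: active = activation of at least 60% and not above a set upper limit (about 1 call in 100 departs from these limits); inconclusive = activation of 40% to 60%, or above that upper limit; inactive = activation under 40%.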 The list shows a part of the results.
target: Probable G-protein coupled receptor 32 (Homo sapiens) (UniProt O75388); experiment: qHTS for Agonists of Human Resolvin D1 Receptor DRV1; details: CHO-K1 GPR32 beta-arrestin PathHunter luminescence, 90 min; at 76.9 µM; active compounds read high; zero percent set by DMSO-only wells; also: 0% is about no effect
In short: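 PathHunter beta-arrestin recruitment in CHO-K1 cells stably expressing ProLink-tagged GPR32. Cells were exposed to compound for 90 min at 37 C, then chemiluminescence was read after 1 h detection at ambient temperature; DMSO served as basal control.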

Sequence of UniProt O75388 (O75388 whole entry, looked up): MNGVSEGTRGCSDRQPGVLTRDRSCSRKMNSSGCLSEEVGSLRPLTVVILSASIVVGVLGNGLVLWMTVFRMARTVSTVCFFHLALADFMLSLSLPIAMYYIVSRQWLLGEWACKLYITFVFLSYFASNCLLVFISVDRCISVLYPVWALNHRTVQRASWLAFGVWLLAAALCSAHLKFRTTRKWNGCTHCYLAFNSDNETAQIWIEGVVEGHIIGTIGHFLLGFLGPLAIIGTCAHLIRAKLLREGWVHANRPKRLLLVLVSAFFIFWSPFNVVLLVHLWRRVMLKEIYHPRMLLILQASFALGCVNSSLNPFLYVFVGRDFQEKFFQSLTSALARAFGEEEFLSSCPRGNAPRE

activation, inactive:
CC1CCN(C(=O)CSc2nc(-c3ccccc3)no2)CC1 45.8%
C(=C\c1ccccc1)/CN1CCN(C(c2ccccc2)c2ccccc2)CC1 -15.3%
COc1ccc(C(c2c(O)cc(C)n(Cc3ccco3)c2=O)N2CCCCC2)cc1OC (centres undefined) -19.9%
CCOc1cccc(CC(=O)N2CCc3c([nH]c4ccccc34)C2c2ccc(Cl)cc2)c1OCC (centres undefined) -27.4%
COc1cc(Cl)c(C)cc1NC(=O)c1ccc2c(Cl)c3c(nc2c1)CCC3 21.4%
CCN(CC)CC(=O)Oc1ccc(NC(C)=O)cc1 0.159%
Cc1cc(C)c(NC(=O)CSc2nc3nc(C)cc(C)n3n2)c(C)c1 -4.88%
Cc1cc(C)c(NC(=O)CSc2ccc(-c3sc(-c4ccccc4)nc3C)nn2)c(C)c1 -0.235%
CCn1c(=O)c2sccc2n2c(CCCC(=O)N3CCN(c4cc(Cl)ccc4C)CC3)nnc12 -11.4%
CCCCn1c(SCC(=O)NCCCOC)nc2c(sc3ccccc32)c1=O -15.4%
O=C(CSc1nc(-c2ccc(F)cc2)[nH]c1-c1ccccc1)NCC1CCCO1 (centres undefined) -10.1%
COc1ccc(-c2nnc(SCC(=O)NCc3ccc(C)cc3)nc2-c2ccc(OC)c(OC)c2)cc1OC -29.7%
CCc1ccc(C(=O)c2cn(CC(=O)Nc3ccc(OC)c(OC)c3)c3ccc(C)cc3c2=O)cc1 -4.79%
CCCCOc1cccc(C2c3c(oc4ccccc4c3=O)C(=O)N2c2ccccn2)c1 (centres undefined) -6.51%
CCS(=O)(=O)N1CCC(n2c(C(F)(F)F)nc3cccnc32)CC1 19.9%
COc1ccccc1N1CCN(c2ncccc2-c2nc(-c3ccc(Cl)cc3)no2)CC1 -23.6%
O=C(CCN1N=C(c2ccccc2)CCC1=O)NCCc1ccc(Cl)cc1 -30.1%
COCCN1C(=O)c2[nH]nc(-c3ccccc3O)c2C1c1ccc(Cl)c(Cl)c1 (centres undefined) -13.3%
CCCC1=Nc2cc(C(=O)NC(C)c3ccccc3)ccc2Sc2ccc(C)cc21 (centres undefined) -14.5%
Cc1nn(C(=O)c2c(F)cccc2F)c(C)c1S(=O)(=O)N1CCOCC1 -3.6%
O=c1c2c(-c3ccccc3)ccnc2[nH]n1-c1ccccc1 -28.1%
Cc1ccc(CN(Cc2ccco2)C(=O)COc2cc(C)c(Cl)c(C)c2)cc1 8.98%
O=C(NCCc1ccccc1)c1cc(S(=O)(=O)N2CCCCC2)c[nH]1 -7.49%
CCOC(=O)c1cnc2c(ccc3ccccc32)c1Nc1cccc(OC)c1 -1.18%
COc1ccc(CCNC(=O)c2ccc3c(c2)N(Cc2ccccc2F)C(=O)c2ccccc2S3(=O)=O)cc1OC -1.35%
Cc1ccc(NC(=O)/C=C/c2ccc(C)o2)c(C)c1 -11.2%
Cc1cccc(N2CCN(C(=O)c3cc4c(=O)oc5ccccc5c4s3)CC2)c1C -4.47%
Cc1cc(C(F)F)n2nc(C(=O)Nc3c(C)cccc3C)nc2n1 -33.3%
CCn1cc(CNC(=O)c2cc(-c3ccc(C)c(C)c3)nc3ccccc23)c(C)n1 14%
CC1CCCCN1C(=O)Cn1c(SCC(=O)N(C)c2ccccc2)nc2ccccc21 (centres undefined) 11.8%
Cc1ccc(NC(=O)c2ccc(=O)n(CC(=O)Nc3cccc(C)c3)n2)cc1 -2.22%
Cc1ccc(NC(=O)c2ccc(NC(=O)N3CCSc4nc(C)cc(C)c43)cc2)c(Cl)c1 -9.46%
O=C(Cn1nc2c(cc1=O)CCCC2)Nc1ccccc1C(F)(F)F -12.9%
COC(=O)c1ccccc1NC(=O)c1cc2nc(-c3ccc(OC)cc3)cc(C(F)(F)F)n2n1 -5.3%
O=C(C1CCCCC1)N1CC(=O)N2CCc3ccccc3C2C1 (centres undefined) -7.88% and -17.6%
Cc1cccc(C(c2sc3nc(-c4ccco4)nn3c2O)N2CCN(c3ccccc3)CC2)c1 (centres undefined) -6.39%
O=C(CSc1n[nH]c(-c2ccccc2Cl)n1)N1CCN(c2ccccc2)CC1 -2.47%
Cc1ccc(C)c(NC(=O)c2ccc3nc(CCc4ccccc4)oc3c2)c1 -36.1%
Cc1cc(NC(=O)c2cccs2)cc(-c2nc3cc(Cl)ccc3o2)c1O -2.97%
CCCc1ccc(C2Sc3ccccc3NC3=C2C(=O)c2ccccc23)cc1 (centres undefined) -61.3%
CCOC(=O)CNS(=O)(=O)c1cc(-c2nnc(Nc3cccc(O)c3)c3ccccc23)ccc1C -17.6%
CCC(=O)NCc1cc(-c2nn(C)c(=O)c3ccccc23)ccc1OC -9.54%
CCn1cc2nc(SCC(=O)Nc3ccc(C)cc3C)n(Cc3ccc(C)cc3)c(=O)c2n1 -7.43%
CCc1ccc(Oc2c(C(F)(F)F)oc3c(CN4CCN(C)CC4)c(O)ccc3c2=O)cc1 -11.2%
O=C(Cn1cc(SCc2cccc(Cl)c2)c2ccccc21)N1CCCCCC1 -36.2%
Cc1ccccc1CNc1ncnc2c1ncn2C1OC(CO)C(O)C1O (centres undefined) 1.43%
CCOc1ccccc1CNC(=O)c1cnc2sc(N3CCCCCC3)nn2c1=O -3.65%
O=C(NCCc1csc2nc(-c3ccc(F)cc3)nn12)c1cccc(C(F)(F)F)c1 -2.12%
COc1ccccc1CN(Cc1ccco1)c1cnc(S(C)(=O)=O)nc1C(=O)Nc1cc(C)ccc1C -14%
COc1cccc(CNC(=O)Cn2ncc3c4ccccc4n(Cc4ccccc4)c3c2=O)c1 -12.8%
COc1ccc(-n2ccn(CC(=O)NCCc3ccccc3)c(=O)c2=O)cc1OC -5.16%
CCc1ccc(S(=O)(=O)NCCc2csc3nc(-c4ccccc4)nn23)s1 35.6%
CC(C)(C)c1ccc(-c2nc3cc(NC(=O)c4cccc(Br)c4)ccc3o2)cc1 2.01%
O=S(=O)(O)c1ccc(O)cc1 1.27%

Reference: PubChem BioAssay AID1346428 (National Center for Advancing Translational Sciences (NCATS), 2018)
